Data published in the supplement of paper PMC7826260.
Some of the results follow. Cleavage of a single-stranded DNA pool by Rep nickase domains was read by sequencing (3 µM enzyme, 1 h, 37 °C); shown is the middle of each 90-letter strand. Numbers give uncut DNA relative to the enzyme-free pool, as log2; uncut sequences lie near 0, cut ones below; no hit call is given. Counts are relative to all reads, so uncut sequences can rise above 0 when many others are cut.

Assays:
Assay in all cases: uncleaved DNA left, log2 of reads against the no-enzyme library (log2 ratio); higher = less cleavage (more negative = more Rep cleavage of the k-mer); sequences stand for … in CTCGTCCG…ACCGGAGA
[1] = tested on: T1, Rep nickase domain of Muscovy duck circovirus
T1 sequence (residues 1-111, tag not shown): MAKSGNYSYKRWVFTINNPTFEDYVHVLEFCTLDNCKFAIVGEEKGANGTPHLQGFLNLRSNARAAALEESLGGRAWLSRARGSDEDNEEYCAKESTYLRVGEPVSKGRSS
Experimental: (§1)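 A pool of 90-nt single-stranded DNAs with seven random bases just before the constant AC of the nick site (name = the seven bases) was cut by 3 µM recombinant His6-SUMO-tagged Rep nickase domain (300 nM DNA, 50 mM HEPES pH 8.0, 50 mM NaCl, 1 mM MnCl2, 1 h, 37 °C, three replicates). Uncut DNA was amplified and sequenced.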

[2] = tested on: T2, Rep nickase domain of banana bunchy top virus
T2 sequence (residues 1-94, tag not shown): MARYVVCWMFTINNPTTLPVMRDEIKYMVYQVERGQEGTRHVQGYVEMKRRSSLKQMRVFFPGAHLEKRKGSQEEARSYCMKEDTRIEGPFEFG
Experimental: as §1

[3] = tested on: T3, Rep nickase domain of cabbage leaf curl virus
T3 sequence (residues 1-116, tag not shown): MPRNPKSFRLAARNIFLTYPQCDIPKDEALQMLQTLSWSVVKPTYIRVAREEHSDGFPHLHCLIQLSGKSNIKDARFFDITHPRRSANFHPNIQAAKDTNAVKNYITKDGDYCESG
Experimental: as §1

[4] = tested on: T4, Rep nickase domain of chickpea chlorotic dwarf virus
T4 sequence (residues 1-124, tag not shown): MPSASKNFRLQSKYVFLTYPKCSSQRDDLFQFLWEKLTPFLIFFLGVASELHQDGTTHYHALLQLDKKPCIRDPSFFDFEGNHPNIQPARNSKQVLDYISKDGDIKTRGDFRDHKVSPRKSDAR
Experimental: as §1

[5] = tested on: T5, Rep nickase domain of faba bean necrotic yellows virus
T5 sequence (residues 1-98, tag not shown): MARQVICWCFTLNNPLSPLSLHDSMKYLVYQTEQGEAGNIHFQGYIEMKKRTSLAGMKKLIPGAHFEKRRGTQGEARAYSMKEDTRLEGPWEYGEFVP
Experimental: as §1

[6] = tested on: T6, Rep nickase domain of maize striate mosaic virus
T6 sequence (residues 1-117, tag not shown): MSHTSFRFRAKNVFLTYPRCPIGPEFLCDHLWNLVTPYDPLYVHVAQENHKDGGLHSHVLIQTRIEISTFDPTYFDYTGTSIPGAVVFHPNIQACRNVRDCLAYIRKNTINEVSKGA
Experimental: as §1

[7] = tested on: T7, Rep nickase domain of porcine circovirus 2
T7 sequence (residues 2-116, tag not shown): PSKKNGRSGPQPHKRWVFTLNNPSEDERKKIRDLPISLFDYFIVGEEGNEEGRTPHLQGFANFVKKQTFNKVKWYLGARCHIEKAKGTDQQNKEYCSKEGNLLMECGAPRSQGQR
Experimental: as §1

[8] = tested on: T8, Rep nickase domain of tomato golden mosaic virus
T8 sequence (residues 1-124, tag not shown): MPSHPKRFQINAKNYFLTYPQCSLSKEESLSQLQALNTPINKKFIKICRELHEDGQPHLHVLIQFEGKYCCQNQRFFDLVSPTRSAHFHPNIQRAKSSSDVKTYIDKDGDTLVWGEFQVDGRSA
Experimental: as §1

[9] = tested on: T9, Rep nickase domain of tomato yellow leaf curl virus
T9 sequence (residues 1-136, tag not shown): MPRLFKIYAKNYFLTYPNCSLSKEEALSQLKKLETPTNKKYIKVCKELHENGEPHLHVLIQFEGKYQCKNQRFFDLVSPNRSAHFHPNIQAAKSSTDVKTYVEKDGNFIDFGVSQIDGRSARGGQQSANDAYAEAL
Experimental: as §1

[10] = tested on: T10, Rep nickase domain of wheat dwarf virus
T10 sequence (residues 1-137, tag not shown): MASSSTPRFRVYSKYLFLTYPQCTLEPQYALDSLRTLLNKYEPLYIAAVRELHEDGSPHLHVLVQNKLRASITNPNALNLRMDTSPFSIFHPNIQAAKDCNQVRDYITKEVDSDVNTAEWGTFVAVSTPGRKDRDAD
Experimental: as §1

Row | Sequence | uncleaved DNA left (log2) [1] | uncleaved DNA left (log2) [2] | uncleaved DNA left (log2) [3] | uncleaved DNA left (log2) [4] | uncleaved DNA left (log2) [5] | uncleaved DNA left (log2) [6] | uncleaved DNA left (log2) [7] | uncleaved DNA left (log2) [8] | uncleaved DNA left (log2) [9] | uncleaved DNA left (log2) [10]
1 | TCACTAC | 0.0394 | -0.13 | -0.0632 | -2.08 | 0.102 | -0.546 | -0.105 | -0.0482 | -0.0926 | -0.0869
2 | GTGACCA | -0.0265 | 0.0644 | 0.341 | 1.06 | -0.196 | 1.7 | 0.0523 | 0.0143 | 0.083 | 0.153
3 | AGTGGAT | -0.0342 | -0.109 | 0.164 | 1.47 | -0.0244 | 1.73 | -0.024 | -0.125 | -0.266 | -0.176
4 | TATCTGA | -0.0255 | -0.0172 | 0.0228 | 0.115 | 0.0489 | 0.486 | 0.0428 | -0.0267 | 0.00317 | 0.00155
5 | GGCTACG | 0.072 | 0.0444 | -0.00914 | -0.0965 | -0.0195 | -0.131 | 0.197 | 0.136 | 0.00709 | 0.0266
6 | GTTATAT | 0.0589 | 0.115 | 0.345 | 0.944 | 0.0706 | 1.81 | 0.0853 | 0.159 | 0.109 | 0.147
7 | CGGTCGT | 0.0739 | 0.0226 | -0.153 | -0.0831 | 0.0156 | -0.377 | -0.053 | -0.0265 | 0.121 | 0.0163
8 | GCAGATC | 0.158 | 0.269 | 0.285 | 0.427 | 0.153 | 0.0258 | 0.311 | 0.156 | 0.187 | 0.296
9 | GATATTC | 0.117 | 0.0551 | 0.481 | 0.955 | 0.122 | 1.28 | 0.185 | 0.0537 | 0.0541 | 0.104
10 | AGTCTGA | -0.0223 | 0.000437 | 0.234 | 0.891 | 0.0534 | 1.46 | -0.000534 | 0.0735 | -0.0317 | 0.011
11 | TGTACTG | 0.0182 | 0.0393 | -0.0225 | 0.621 | 0.00766 | 1.53 | 0.062 | -0.0583 | 0.0376 | 0.0679
12 | TGGGGAA | -0.0708 | -0.01 | 0.666 | 1.59 | 0.16 | 2.01 | 0.0683 | -0.0257 | 0.0238 | 0.125
13 | TGGAATA | -0.00796 | 0.117 | 0.362 | 0.47 | 0.0617 | 1.22 | 0.00586 | 0.0351 | 0.081 | 0.221
14 | CGCCTAA | 0.0256 | -0.146 | -0.251 | -0.27 | -0.112 | -0.474 | -0.0499 | -0.125 | -0.107 | -0.0495
15 | GTATTTC | -0.123 | 0.0176 | 0.28 | 0.849 | -0.0172 | 1.6 | 0.0368 | 0.0529 | 0.0921 | 0.0609
16 | TACTGGG | 0.122 | 0.0924 | -0.386 | -0.631 | 0.134 | -0.859 | 0.226 | 0.0406 | 0.0864 | 0.0908
17 | AGATCGG | 0.0975 | 0.198 | 0.503 | 1.34 | -0.0842 | 1.59 | 0.201 | 0.196 | 0.00787 | 0.119
18 | TATCATG | -0.0323 | -0.0913 | -0.57 | -0.821 | -0.0457 | -1.11 | 0.025 | -0.0427 | -0.0315 | -0.145
19 | CTCAACG | 0.0397 | 0.0313 | -0.865 | -0.378 | 0.123 | -1.07 | 0.245 | 0.0397 | 0.0747 | 0.0282
20 | AGATAGG | 0.159 | 0.114 | 0.06 | 0.818 | 0.137 | 0.233 | 0.201 | 0.133 | 0.0234 | 0.181
21 | GAGTAGT | -1.49 | -2.5 | 0.122 | -0.0216 | -2.42 | 0.228 | -3.25 | -0.0902 | 0.177 | 0.0445
22 | AAGCCCA | -0.118 | -0.0216 | -0.00265 | -1.48 | -0.0628 | 0.0695 | -0.404 | 0.0181 | -0.0818 | 0.0254
23 | GTTGGGG | -0.0323 | -0.0874 | 0.137 | 0.389 | -0.048 | -0.0727 | 0.1 | 0.0467 | -0.0532 | -0.00141
24 | GTACCAC | 0.0486 | 0.171 | 0.331 | 0.828 | -0.0722 | 1.42 | 0.0173 | 0.143 | 0.223 | 0.185
25 | TCGTGCG | -0.0301 | -0.158 | -0.783 | 0.675 | -0.041 | -0.271 | 0.0715 | -0.058 | -0.0937 | -0.0864
26 | AAACATG | 0.0581 | 0.172 | -0.278 | -0.534 | 0.186 | -0.83 | 0.124 | 0.109 | 0.0393 | -0.0305
27 | CGCTACG | -0.0919 | 0.156 | -0.727 | -0.543 | 0.0777 | -0.801 | 0.0411 | -0.132 | 0.0822 | 0.0206
28 | GTCCACC | -0.0918 | 0.0643 | 0.326 | 0.774 | 0.0172 | 1.44 | -0.0775 | 0.0158 | 0.0662 | -0.00684
29 | AACGTTA | 0.0358 | -0.0914 | -0.161 | -1.79 | 0.0657 | -0.342 | -0.306 | 0.101 | -0.0526 | -0.0871
30 | ACGCTGA | 0.184 | -0.0124 | -0.00248 | 0.458 | 0.0666 | 0.26 | 0.177 | 0.152 | -0.00961 | -0.042
